Data taken from patent US20240090503A1, “FUNGICIDAL OXADIAZOLES AND THEIR MIXTURES” (FMC CORPORATION, priority 2020, published 2024).
Some of these results come from one statement about several compounds together. At least one compound was matched to its structure with a doubt left.

Tested on: Erysiphe graminis f. sp. tritici (the causal agent of wheat powdery mildew)
Experiment: Test D: preventive spray on wheat seedlings, wheat powdery mildew, visual disease rating
Format: in vivo
Conditions: wheat seedlings sprayed to run-off, inoculated next day, rated after 8 days at 20° C.; test concentration not stated

Structure (SMILES)	disease control (very good to excellent)
CCOC(=O)c1cnn(C(C)c2ccc(-c3noc(C(F)(F)F)n3)s2)c1 (stereo not shown) [Compound 192]	≥ 80%
COC(=O)c1coc(Cc2ccc(-c3noc(C(F)(F)F)n3)cc2)n1 [Compound 490]	≥ 80%
FC(F)(F)c1nc(-c2ccc(OCc3cccnc3)cc2)no1 [Compound 353]	≥ 80%
FC(F)(F)c1nc(-c2ccc(Cn3ccc(-c4ccccc4)n3)cc2)no1 [Compound 85]	≥ 80%
CCOC(=O)c1cccc(Cc2ccc(-c3noc(C(F)(F)F)n3)cc2)c1 [Compound 454]	≥ 80%
COCCNC(=O)c1ccc(Cc2ccc(-c3noc(C(F)(F)F)n3)cc2)cc1 [Compound 282]	≥ 80%
Cc1ccccc1C(O)c1ccc(-c2noc(C(F)(F)F)n2)cc1 (stereo not shown) [Compound 497]	≥ 80%
FC(F)(F)c1nc(-c2ccc(OCn3cncn3)cc2)no1 [Compound 337]	≥ 80%
COC(=O)c1csc(Cc2ccc(-c3noc(C(F)(F)F)n3)cc2)c1 [Compound 455]	≥ 80%
O=C(c1coc(Cc2ccc(-c3noc(C(F)(F)F)n3)cc2)n1)N1CCOCC1 [Compound 263]	≥ 80%
